According to the GPR68 mutational scans of Howard et al. (2025):
The least precise scores are not listed. The source holds two more conditions with little spread; they are left out. Names with del lack the residues named; names with ins carry added residues between the positions named. For part of these data: How much ogerin was present is not stated here.

B1: GPR68, Q15743 (parent)
chain: MGNITADNSSMSCTIDHTIHQTLAPVVYVTVLVVGFPANCLSLYFGYLQIKARNELGVYLCNLTVADLFYICSLPFWLQYVLQHDNWSHGDLSCQVCGILLYENIYISVGFLCCISVDRYLAVAHPFRFHQFRTLKAAVGVSVVIWAKELLTSIYFLMHEEVIEDENQHRVCFEHYPIQAWQRAINYYRFLVGFLFPICLLLASYQGILRAVRRSHGTQKSRKDQIQRLVLSTVVIFLACFLPYHVLLLVRSVWEASCDFAKGVFNAYHFSLLLTSFNCVADPVLYCFVSETTHRDLARLRGACLAFLTCSRTGRAREAYPLGAPEASGKSGAQGEEPELLTKLHPAFQTPNSPGSGGFPTGRLA

Tests used:
[1] = variants of: B1; test: cAMP reporter score (Enrich2 score, wild type = 0); higher = more signal; HEK293T, FACS bins
[2] = variants of: B1; test: surface expression score (Enrich2 score, wild type = 0); higher = more signal; HEK293T, FACS bins

Variant	cAMP reporter score ([1]; pH 5.5)	cAMP reporter score ([1]; pH 6)	cAMP reporter score ([1]; pH 6, modulator: ogerin)	cAMP reporter score ([1]; pH 6.5, modulator: ogerin)	surface expression score [2]
F190_L191del	-1.87	-1.03	-2.47	-1.58	-2.02
F196del	-1.17	-0.913	-2.85	-1	-2.16
A203_S204insG	-0.973		-1.89	-0.845	-2.77
I178_Q179insGS	-0.892	-0.675		-0.794	-1.1
C199_L200insGS	-1.7	-0.372	-1.8	-1.5	-1.88
S215del	-1.73	-0.827	-0.293	-0.751	0.435
F194del	-1.46	1.09	-0.627	-0.564	
P197_C199del	-1.02	-1.53	-1.88	-1.55	-2.24
N186_Y187insGSG	-1.9	-1.65	-1.74	-1.61	-1.2
Q179_A180insGS	-1.59	-0.771	-1.05	-0.822	-1.05
A211_R213del	-1.75	-0.944	-1.88	-1.44	-1.05
K220_S221del	-1.33	-0.74	-1.6	-0.618	-0.732
L200_L201insG	-2		-0.121		-4.29
A180_W181del	0.117	-0.941	-0.966	-0.449	-1.18
L195del	-1.4	-1.04	-1.49	-0.473	
I198_C199insGSG	-0.748	-0.779			-1.89
R189_L191del	-0.931	-1.92	-1.75	-1.31	-1.99
H175_Y176insGSG	-1.29	-1.16	-1.74	-0.936	0.609
G193_F194del	-1.48	-0.968	-1.22	-1.09	-2.28
R210_A211insGS	-0.206	-0.847	-2.3	-0.824	-1.01
L195_F196insGSG	-1.59	-1.12	-2.19	-1.31	
P197del	-1.28		-1.35	-0.575	-1.67
I208_L209insGSG	-2.06	-1.1	-1	-1.26	
I208_R210del	-1.21	-0.644	-1.31	-0.717	-1.73
S221Q	0.902		0.454		0.423
S221A	1.03	0.524	1.23	0.823	1.12

Variant	cAMP reporter score ([1]; pH 5.5)	cAMP reporter score ([1]; pH 6)	cAMP reporter score ([1]; pH 6, modulator: ogerin)	cAMP reporter score ([1]; pH 6.5, modulator: ogerin)	surface expression score [2]
S221P	0.561	0.343	0.104	-0.356	1.05
S221N	0.488	0.346	-0.028	-0.114	0.885
S221T	1.18	0.738	1.37	0.494	1.47
S221K	0.127	0.591	0.642	0.769	0.14
S221M	-0.016	-1.32	-0.268	-1.91	0.133
S221W	1.48	-0.178	0.382	0.848	-0.195
S221C	0.546	0.117	0.52	0.981	0.803
S221E	0.055		0.888	1.61	1.03
S221D	0.659	0.131	0.508	0.417	0.977
S221Y	0.062	0.063	-0.053	-0.184	-0.613
S221H	-0.494	0.758	0.48	-1.34	-0.734
S221R	-0.399	-0.204	-0.645		-0.281
S221L	-0.552	-1.38	-0.716	-0.918	0.231
S221G	1.02	-0.128	0.759	0.871	1.18
S221I	-0.048	-0.978	0.033	-0.493	0.006
S221V	-0.025	0.055	0.332	-0.863	0.241
S221F	0.068	-0.277	-0.023	-0.563	0.197
F196_P197insG	0.009	-1.1		-0.812	-2.38
L202_A203insG	-0.605	-1.01	-1.98	-0.876	-4.22
I208_L209insGS	-0.835	-1.22	-1.1	-1.09	-1.96
Q206del	-1.21	-1.14	-1.5	-1.19	-2.21
H216_G217insGS	-1.37	-0.932	-1.41	-1.13	0.69
Q219_K220insGS	-1.51	-1.24	-1.5	-0.882	0.863
L200_L201insGS	-1.57	-1.56		-1.3	
Q206_G207insGSG	-1.91	-1.54	-2.16	-0.947	-2.28
G207_I208insGSG	-1.99	-0.166	-1.95	-1.32	-2.38

Variant	cAMP reporter score ([1]; pH 5.5)	cAMP reporter score ([1]; pH 6)	cAMP reporter score ([1]; pH 6, modulator: ogerin)	cAMP reporter score ([1]; pH 6.5, modulator: ogerin)	surface expression score [2]
I198del	-1.72	-1.53		-0.909	-2.25
F194_L195insGS	-2.11	-0.034	-0.722	-0.936	-3.06
Q182_R183del	-1.11	-1.67	-1.8	-1.05	-2.44
Q179_A180insG	-0.327	-0.964	-0.874	-1.7	-0.616
G217F	0.947	-1.87	0.918	-0.445	
G217L	-0.961	-0.497	-0.709	-1.37	0.159
G217M	-1.01	-0.213	-1.16	-0.703	-0.181
G217Q	-1.22	-0.632	-1.96	-1.23	-0.535
G217S	0.991	-1.09	0.297	-0.796	0.598
G217P	-0.353	-0.057	-0.422	-0.167	-0.362
G217E	-1.18	-1.27	-1.22	-0.71	0.249
G217I	-0.75	-0.633	-1.97	-0.549	-0.114
G217D	-1.48	0.638	-1.61	-1.49	0.469
G217T	-1.08	-1.98		-0.442	
G217K	-0.708	-1.11	-1.22	-0.819	0.217
G217W	0.594	-0.695	-0.097	-0.7	-0.094
G217V	-0.145	0.405	-0.14	-1.09	0.493
G217H	-0.978	-0.264	-0.335	-1.32	-0.454
G217A	-0.362	-0.669	-1.71	-0.353	0.144
G217C	-0.666	-1.08	-0.868	-1.35	-0.399
G217N	-0.616	-0.18	-1.47	-0.198	0.572
G217Y	-0.29	-0.471	-0.928	-0.657	-0.992
G217R	-1.2		-1.16	-0.772	0.587
V192_F194del	-0.244		-1.46	-2.08	-1.96
Q206_I208del	-1.55	-1.45	-0.933	-1.27	-2.48
R189_F190insGSG	-1.29	-1.62	-1.15	-1.09	-2.06

Variant	cAMP reporter score ([1]; pH 5.5)	cAMP reporter score ([1]; pH 6)	cAMP reporter score ([1]; pH 6, modulator: ogerin)	cAMP reporter score ([1]; pH 6.5, modulator: ogerin)	surface expression score [2]
Y176_P177del	-1.07	0.174	-1.59		-2.58
G207_L209del	-2.38			-2.85	-3.35
T218F	0.226	-0.565	0.637	-0.131	0.043
T218H	-0.309	-0.772	-1.43		-0.643
T218S	-0.274	-1.08	-0.641	-1.08	-0.029
T218D	-0.337	-0.913	-0.561	-0.442	2.16
T218P	-0.628	-1.15	0.086	-1.25	0.322
T218Q	0.107	-0.176	0.283	-0.893	1.14
T218W	-0.212	-0.933	-0.839	-1.33	0.436
T218E	0.664	-0.769	0.686	-0.266	0.954
T218L	-0.286	2.01	0.468	2.39	
T218C	0.376		1.36	-0.316	
T218N	-0.737	-0.971		-1.22	0.993
T218A	0.312	-0.325	0.372	-0.479	0.506
T218G	-1.46	-1.41	-1.49	-1.91	0.135
T218Y	-0.314	-0.996	-0.371	-0.425	-0.442
T218K	-1.34	-1.22	-2.06	-1.01	-0.61
T218V	-0.398				
T218I	-0.207	1.03	-0.29	0.746	-0.066
L201_A203del	-0.539	-0.993	-2.55	-0.748	-2.93
G193_F194insGS	-0.663	-1.6	-1.1	-1.87	-2.72
F190_L191insGS	-1.6	-0.655	-1.93	-1.5	-2.38
F196_P197insGS	-0.049	1.33	-0.759	0.57	-2.56
A184_I185insGSG	-0.356	-0.988	-2.27	-1.36	-1.63
I198_C199insGS	-1.46	-1.27	-1.78	-1.27	-2.31
W181_Q182insGS	-0.833	-0.975	-1.05	-0.884	-1.49

Variant	cAMP reporter score ([1]; pH 5.5)	cAMP reporter score ([1]; pH 6)	cAMP reporter score ([1]; pH 6, modulator: ogerin)	cAMP reporter score ([1]; pH 6.5, modulator: ogerin)	surface expression score [2]
I208T	-0.25	-0.563	-0.291		-0.38
I208H	-2.17		-1.22	-0.442	
I208L	-1.1	0.083	-0.859	-0.592	-1.67
I208D	-0.829	-0.966	-2.05		-3.07
I208Q	-1.08	-0.976	-1.63	-1.13	-2.05
I208S	-0.526	-1.37	-0.971	-0.391	-1
I208Y	-0.484	-1.04		-0.539	-0.717
I208C	-1.02	-1.43	-1.1	-1.44	-0.871
I208P	-1.99	-1.12	-0.949	-1.48	
I208M	0.063	0.262	0.191	-0.555	-0.838
I208G	-1.44			-1.16	-2.41
I208K	-1.34	-0.146	-0.79	-0.891	-3.3
I208R	-1.64	-1.11	-2.53	-1.09	-2.18
I208E	-1.39	-0.651			
I208A	-0.527	-1.05	-1.08	-0.744	-1.32
I208W	-1.66	-1.33	-1.31	-0.747	-2.29
I208F	-2	-0.518	-0.914	-0.334	-1.27
F190del	2.48		0.92	0.137	-1.84
I198_C199insG	-1.41	-1.08	-1.38	-1.03	-1.97
Y188_F190del	-1.58	-1.22		-1.17	-2.51
H216del	-0.666	-0.1	-0.803	-2.02	0.091
Y176_P177insGS	-1.74	-1.23	-1.19	-2.11	-1.76
A184del	-1.78	-1.14	-1.48	-1.2	-1.37
R213_R214insGSG	-0.93	-1.42	-1.7	-1.39	1.08
Q179_A180insGSG	-1.39	-0.772	-1.16		
